According to article PMC5892938:
The other results are listed elsewhere or left out. The source does not settle which construct or isoform was used.

Target: GST-SBP-ILF3 (Homo sapiens) (UniProt Q12906)
Experiment: targeted RNA Bind-n-Seq
Conditions: RBNS binding buffer: 25 mM Tris pH 7.5, 150 mM KCl, 3 mM MgCl2, 0.1% Tween, 0.5 mg/mL BSA, 1 mM DTT; 27 nM protein, 750 pM RNA pool; temperature not stated; high values mean tight binding; sequences stand for … in GGGUAAAAGCGAGGUGAA…CGGGACAAGUAUUAUGGG

| Sequence | binding signal (log2 fold change) |
| --- | --- |
| UUUUUUUUUUGAGAGGGUCGCCCUCUCCAG [tttttgagapaired] | 0.697 |
| UUCUCUUCUCCUCCUUGGGAGGGGAAGGGA [ctspaired] | -0.472 |
| GGUGUGUGUGUUGGACCCUAACACAUACGC [gtspaired] | -0.0898 |
| GUUGUGUGUGUUGGCUUCUAACACACGCAA [gtspaired] | -0.633 |
| UUUUUUUUUUGAGACCGGAACGGUCUCCGG [tttttgagapaired] | 0.232 |
| GUGUGUGGUGUUGGCCUCUAACACCACGCA [gtspaired] | -0.626 |
| GUGGUGUGUGUUGGCUUCUAACACAUACUA [gtspaired] | -0.837 |
| GGUUGUGGUGUUGGUAUCUAACACCGCGAC [gtspaired] | -0.583 |
| GGUGUGUGUGUUGGACCCUAACACACAUAC [gtspaired] | -0.583 |
| UUUUUUUUUUGAGACCGAAACGGUUUCCUA [tttttgagapaired] | 0.221 |
| GGUUGUGGUGUUGGUGCCUAACACCGCGAC [gtspaired] | -0.287 |
| UUUUUUUUUUGAGAGUGAUACACUCUCCGG [tttttgagapaired] | -0.0683 |
| UUUUUUUUUUGAGAUCGUAUCGAUCUUCUA [tttttgagapaired] | -0.322 |
| UUUUUUUUUUGAGACUGGAACAGUCUUCUA [tttttgagapaired] | -0.0523 |
| UUUUUUUUUUGAGACGGCGUCCGUCUCCAG [tttttgagapaired] | 0.915 |
| UUUUUUUUUUGAGACGGGGACUGUCUCCUA [tttttgagapaired] | 0.825 |
| UUUUUUUUUUGAGACUGUAACAGUCUCCUG [tttttgagapaired] | 0.692 |
| UUUUUUUUUUGAGACUGUAGCAGUCUUCUG [tttttgagapaired] | 0.742 |
| GUGUGUGGUGUUGGAAUCUAACACCGCGCA [gtspaired] | -0.485 |
| GUGUGGUGUGUUGGCCUCUAACACACCGCG [gtspaired] | -0.843 |
| GUGGUGUGUGUUGGCUCCUAACACACGCCG [gtspaired] | -0.454 |
| GUGGUGUGUGUUGGCGCCUAACACACGCCA [gtspaired] | -0.143 |
| UUUUUUUUUUGAGAUGGGGACCAUCUUCUA [tttttgagapaired] | 0.15 |
| UUUUUUUUUUGAGACUGAAGCAGUCUCCUG [tttttgagapaired] | 0.447 |
| GUGUUGUGUGUUGGCACCUAACACACAACG [gtspaired] | -0.252 |
| UUUUUUUUUUGAGACGGGUGCCGUCUCCUA [tttttgagapaired] | 0.412 |

| Sequence | binding signal (log2 fold change) |
| --- | --- |
| GUGUGUUGUGUUGGUGCCUAACACAACGCA [gtspaired] | -0.894 |
| UUUUUUUUUUGAGAUGGGUACUAUCUCCAG [tttttgagapaired] | 0.623 |
| GGUGGUGGUGUUGGCGCCUAACACCGCCGC [gtspaired] | -0.259 |
| UUUUUUUUUUGAGAACGAACCGUUCUCCUA [tttttgagapaired] | 0.0225 |
| GUGUGGUGUGUUGGUUCCUAACACACUAUA [gtspaired] | -0.473 |
| UUUUUUUUUUGAGAGCGGGACGUUCUCCGG [tttttgagapaired] | 0.39 |
| GUUGUGUGUGUUGGAGCCUAACACACGCAA [gtspaired] | -0.406 |
| UUUUUUUUUUGAGAUGGGUACCAUUUCCGG [tttttgagapaired] | 0.56 |
| UUUUUUUUUUGAGAGGGGCACCCUCUCCGG [tttttgagapaired] | 0.661 |
| UUUUUUUUUUGAGACGGAAUCUGUCUUCUA [tttttgagapaired] | 0.148 |
| GGUGGUGGUGUUGGAUCCUAACACCGCUAC [gtspaired] | -0.964 |
| UUUUUUUUUUGAGACGGCAUCCGUCUCCUG [tttttgagapaired] | 0.611 |
| UUUUUUUUUUGAGAGGGGAUCCUUCUCCGG [tttttgagapaired] | 0.00989 |
| GGUUGUGGUGUUGGACCCUAACACCGCAGC [gtspaired] | -0.785 |
| UUUUUUUUUUGAGACCGAUCCGGUCUCCUA [tttttgagapaired] | 0.259 |
| UUUUUUUUUUGAGACUGUGACAGUUUCCGG [tttttgagapaired] | 0.685 |
| GUGUGUGGUGUUGGAACCUAACACCGCACG [gtspaired] | -1.01 |
| UUUUUUUUUUGAGAUGGUCUCCAUCUCCGG [tttttgagapaired] | 0.227 |
| UUUUUUUUUUGAGACGGGUACCGUCUCCUG [tttttgagapaired] | 0.242 |
| UUUUUUUUUUGAGAGCGACACGUUCUCCUA [tttttgagapaired] | 0.206 |
| UUCCUUCUUCCUCCGUGGGAGGGAGAGGGA [ctspaired] | -0.375 |
| UUUUUUUUUUGAGAGUGAGACACUCUUCUA [tttttgagapaired] | 0.0182 |
| UUUUUUUUUUGAGAGCGACGCGCUCUUCUA [tttttgagapaired] | 0.188 |
| UUUUUUUUUUGAGACCGCAACGGUCUUCUG [tttttgagapaired] | 0.719 |
| GUUGGUGGUGUUGGUCCCUAACACCACCGA [gtspaired] | -0.587 |
| UUUUUUUUUUGAGAACGAGUCGUUCUCCGG [tttttgagapaired] | 0.199 |

| Sequence | binding signal (log2 fold change) |
| --- | --- |
| GUGUGUGGUGUUGGCACCUAACACCGCGCA [gtspaired] | -0.626 |
| UUUUUUUUUUGAGACUGCUACAGUUUCCUG [tttttgagapaired] | 0.823 |
| UUUUUUUUUUGAGACGGAAACCGUUUCCAG [tttttgagapaired] | 0.559 |
| GGUGUUGGUGUUGGAGUCUAACACCGAUAC [gtspaired] | -0.59 |
| GUGUGGUGUGUUGGCCCCUAACACAUCGCA [gtspaired] | 0.0119 |
| UUUUUUUUUUGAGACUGCAACAGUUUCCGG [tttttgagapaired] | 0.666 |
| GUUGGUGGUGUUGGUGCCUAACACCAUCAA [gtspaired] | -0.0456 |
| UUUUUUUUUUGAGACUGUUUCAGUCUCCUA [tttttgagapaired] | -0.237 |
| UUUUUUUUUUGAGAUGGAGGCCAUCUUCUG [tttttgagapaired] | 0.328 |
| UUUUUUUUUUGAGAUGGGGUCCGUCUCCUG [tttttgagapaired] | 0.882 |
| UUUUUUUUUUGAGAAGGGGUCCUUCUCCUG [tttttgagapaired] | 0.663 |
| UUUUUUUUUUGAGAGGGAUACCCUCUUCUA [tttttgagapaired] | -0.00194 |
| UUUUUUUUUUGAGAGUGAGACACUCUCCUA [tttttgagapaired] | -0.00729 |
| UUUUUUUUUUGAGAGCGAUACGCUCUCCUG [tttttgagapaired] | 0.258 |
| UUUUUUUUUUGAGAUGGAUCCCAUCUCCGG [tttttgagapaired] | 0.194 |
| UUUUUUUUUUGAGAUGGGAACCAUCUCCUA [tttttgagapaired] | 0.198 |
| UUUUUUUUUUGAGACGGUUGCCGUCUCCUG [tttttgagapaired] | 0.739 |
| GGUUGGUGUGUUGGACCCUAACACAUCAAC [gtspaired] | -0.773 |
| UUUUUUUUUUGAGACCGAGGCGGUUUCCAG [tttttgagapaired] | 0.82 |
| UUUUUUUUUUGAGACCGACACGGUUUCCUG [tttttgagapaired] | 0.793 |
| UUUUUUUUUUGAGACGGCAACUGUCUCCUA [tttttgagapaired] | 0.858 |
| UUUUUUUUUUGAGACGGAAUCCGUUUCCGG [tttttgagapaired] | 0.272 |
| UUUUUUUUUUGAGACGGGCACCGUCUCCAG [tttttgagapaired] | 0.708 |
| GGUGUUGGUGUUGGAUUCUAACACCAGCGC [gtspaired] | -0.7 |
| UUUUUUUUUUGAGACGGAAGCCGUCUCCGG [tttttgagapaired] | 0.422 |
| GUGUGUGGUGUUGGCCCCUAACACCGCGCA [gtspaired] | -0.29 |

| Sequence | binding signal (log2 fold change) |
| --- | --- |
| UUUUUUUUUUGAGACUGCUACAGUUUCCUA [tttttgagapaired] | 0.432 |
| UUUUUUUUUUGAGACUGGGACAGUCUCCUG [tttttgagapaired] | 0.304 |
| UUUUUUUUUUGAGAUGGACACUAUCUCCUA [tttttgagapaired] | 0.324 |
| UUCCUUCUUCCUCCACGGGAGGGAGAGGGA [ctspaired] | -0.425 |
| GUGUGUGGUGUUGGCACCUAACACCACAUA [gtspaired] | -0.425 |
| UUUUUUUUUUGAGACGGCAGCCGUCUUCUA [tttttgagapaired] | 0.571 |
| GUGUGGUGUGUUGGCCCCUAACACACUACA [gtspaired] | -0.206 |
| GUGUGUGGUGUUGGAGCCUAACACCACGCG [gtspaired] | -0.564 |
| UUCUCCUCUCCUCCGAGGGAGGGGAGGGGA [ctspaired] | -0.743 |
| UUUUUUUUUUGAGAGGGAAUCCUUCUCCAG [tttttgagapaired] | -0.0906 |
| UUUUUUUUUUGAGAUGGCACCCAUCUCCAG [tttttgagapaired] | 0.52 |
| UUUUUUUUUUGAGACGGCGUCCGUCUCCGG [tttttgagapaired] | 0.868 |
| UUUUUUUUUUGAGACCGGUUCGGUCUCCUG [tttttgagapaired] | 0.554 |
| UUUUUUUUUUGAGACGGCUACCGUCUCCUG [tttttgagapaired] | 0.392 |
| GGUGUGUGUGUUGGUCUCUAACACACGCGC [gtspaired] | -0.244 |
| GGUGUGUGUGUUGGCGCCUAACACAUAUAC [gtspaired] | -0.631 |
| GGUGUUGGUGUUGGUUCCUAACACCAGCGC [gtspaired] | -0.782 |
| UUUUUUUUUUGAGACGGGAACCGUCUCCAG [tttttgagapaired] | -0.00745 |
| UUUUUUUUUUGAGAGCGUAGCGUUCUUCUA [tttttgagapaired] | 0.249 |
| UUUUUUUUUUGAGACUGGGUCAGUUUCCUA [tttttgagapaired] | 0.657 |
| UUUUUUUUUUGAGACUGAAUCAGUUUCCUG [tttttgagapaired] | 0.385 |
| GUUGUGUGUGUUGGCGUCUAACACACGCGA [gtspaired] | -0.571 |
| UUUUUUUUUUGAGAGCGAAACGCUCUCCGG [tttttgagapaired] | 0.0939 |
| GGUGGUUGUGUUGGCUCCUAACACAGCCGC [gtspaired] | -0.829 |
| UUUUUUUUUUGAGAUGGGGUCUAUCUCCGG [tttttgagapaired] | 0.358 |
